Our source for the yeast fitness gain values is the supplement of paper PMC11741623.

Sequences and labels used below:
B1: ARHGAP19, Q14CB8 (protein)
chain: MATEAQSEGEVPARESGRSDAICSFVICNDSSLRGQPIIFNPDFFVEKLRHEKPEIFTELVVSNITRLIDLPGTELAQLMGEVDLKLPGGAGPASGFFRSLMSLKRKEKGVIFGSPLTEEGIAQIYQLIEYLHKNLRVEGLFRVPGNSVRQQILRDALNNGTDIDLESGEFHSNDVATLLKMFLGELPEPLLTHKHFNAHLKIADLMQFDDKGNKTNIPDKDRQIEALQLLFLILPPPNRNLLKLLLDLLYQTAKKQDKNKMSAYNLALMFAPHVLWPKNVTANDLQENITKLNSGMAFMIKHSQKLFKAPAYIRECARLHYLGSRTQASKDDLDLIASCHTKSFQLAKSQKRNRVDSCPHQEETQHHTEEALRELFQHVHDMPESAKKKQLIRQFNKQSLTQTPGREPSTSQVQKRARSRSFSGLIKRKVLGNQMMSEKKKKNPTPESVAIGELKGTSKENRNLLFSGSPAVTMTPTRLKWSEGKKEGKKGFL
B2: LRTM2, Q8N967 (protein)
chain: MLAPGSSPGQRGRLALQWRQVSWITCWIALYAVEALPTCPFSCKCDSRSLEVDCSGLGLTTVPPDVPAATRTLLLLNNKLSALPSWAFANLSSLQRLDLSNNFLDRLPRSIFGDLTNLTELQLRNNSIRTLDRDLLRHSPLLRHLDLSINGLAQLPPGLFDGLLALRSLSLRSNRLQNLDRLTFEPLANLQLLQVGDNPWECDCNLREFKHWMEWFSYRGGRLDQLACTLPKELRGKDMRMVPMEMFNYCSQLEDENSSAGLDIPGPPCTKASPEPAKPKPGAEPEPEPSTACPQKQRHRPASVRRAMGTVIIAGVVCGVVCIMMVVAAAYGCIYASLMAKYHRELKKRQPLMGDPEGEHEDQKQISSVA
B3: TNFSF14, O43557 (protein)
chain: MEESVVRPSVFVVDGQTDIPFTRLGRSHRRQSCSVARVGLGLLLLLMGAGLAVQGWFLLQLHWRLGEMVTRLPDGPAGSWEQLIQERRSHEVNPAAHLTGANSSLTGSGGPLLWETQLGLAFLRGLSYHDGALVVTKAGYYYIYSKVQLGGVGCPLGLASTITHGLYKRTPRYPEELELLVSQQSPCGRATSSSRVWWDSSFLGGVVHLEAGEKVVVRVLDERLVRLRDGTRSYFGAFMV
B4: C12orf65, Q9H3J6 (protein)
chain: MSTVGLFHFPTPLTRICPAPWGLRLWEKLTLLSPGIAVTPVQMAGKKDYPALLSLDENELEEQFVKGHGPGGQATNKTSNCVVLKHIPSGIVVKCHQTRSVDQNRKLARKILQEKVDVFYNGENSPVHKEKREAAKKKQERKKRAKETLEKKKLLKELWESSKKVH

The other results are listed elsewhere or left out. Interaction screen of human proteins with wild-type SARS-CoV-2 proteins by split-DHFR complementation in yeast, 1 µg/mL methotrexate. Value = fitness of the pair (three or more lineages) minus that of the viral protein without a human partner, on a scale set by negative (0) and fused positive (1) controls, mean of up to three cultures; higher = more likely to interact. Active = false discovery rate below 0.05 (one-sided t-test) in at least one culture. Nearly all pairs are not hits, and differences among them are mostly noise (correlation between cultures about 0.3); most hits were seen in one culture only. Human sequences are the Swiss-Prot entries looked up by gene name; the clone may be another isoform. NSP2 values were corrected by the authors for a growth advantage. Listed are human proteins with a hit and a random twelfth of the others.

In one assay the target is SARS-CoV-2 M. Briefly: yeast fitness gain over the viral ORF with no human partner (scaled fitness); higher = more likely to interact. How it is done:
(§1)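 Split mouse DHFR complementation in pooled diploid yeast: human ORFeome clones carry one fragment and viral ORFs the other; barcoded lineages compete in 1 µg/mL methotrexate and fitness is read by barcode sequencing in up to three cultures.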
As to B1, the yeast fitness gain is inactive: 0.0524.

As to B2, the yeast fitness gain is inactive: -0.0185.

For B3, the yeast fitness gain was inactive: -0.0215.

Regarding B4, the yeast fitness gain is inactive: 0.0179.

Another assay concerns the target SARS-CoV-2 N. Described as above. How it is done: as §1
As to B1, the yeast fitness gain is inactive: -0.178.

In the case of B3, the yeast fitness gain is inactive: -0.0637.

In another assay the target is SARS-CoV-2 NSP13. The description is as above. How it is done: as §1
As for B1, the yeast fitness gain was inactive: -0.0296.

For B2, the yeast fitness gain was inactive: -0.135.

B3: the yeast fitness gain is inactive: -0.0701.

For the molecule B4, the yeast fitness gain was inactive: 0.0376.

Another assay has as its target SARS-CoV-2 NSP15. The description is as above. How it is done:
as §1
On to B1, for which the yeast fitness gain is inactive: -0.0784.

On to B2, for which the yeast fitness gain is inactive: 0.00149.

On to B3, for which the yeast fitness gain was inactive: 0.0155.

In the case of B4, the yeast fitness gain is inactive: 0.0327.

The target of a further assay is SARS-CoV-2 NSP16. Described as above. How it is done: as §1
Turning to B1, the yeast fitness gain is inactive: 0.095.

For the molecule B2, the yeast fitness gain is inactive: -0.115.

For B3, the yeast fitness gain was inactive: -0.0798.

As for B4, the yeast fitness gain is inactive: -0.00554.

The target of the next assay is SARS-CoV-2 NSP2. Described as above. How it is done: as §1
For B1, the yeast fitness gain is inactive: -0.253.

For B2, the yeast fitness gain is inactive: -0.118.

For B3, the yeast fitness gain is inactive: -0.211.

With B4, the yeast fitness gain was inactive: -0.0935.

The target in a further assay is SARS-CoV-2 NSP5. The assay is described as above. How it is done:
as §1
Consider B1, for which the yeast fitness gain is inactive: 0.162.

As to B2, the yeast fitness gain was inactive: -0.0634.

B3: the yeast fitness gain was inactive: 0.00598.

Turning to B4, the yeast fitness gain is inactive: 0.0468.

The next assay has as its target SARS-CoV-2 ORF10. Described as above. How it is done:
as §1
With B1, the yeast fitness gain is inactive: 0.0778.

Turning to B2, the yeast fitness gain is inactive: -0.0511.

With B3, the yeast fitness gain was inactive: 0.0218.

For B4, the yeast fitness gain is inactive: -0.00152.

Another assay concerns the target SARS-CoV-2 ORF3B. The description is as above. As to the method: as §1
Regarding B1, the yeast fitness gain was inactive: 0.0148.

For the molecule B2, the yeast fitness gain is inactive: 0.00522.

On to B3, for which the yeast fitness gain was inactive: -0.115.

As for B4, the yeast fitness gain was inactive: 0.00408.

Another assay addresses SARS-CoV-2 ORF7A. The assay is described as above. As to the method:
as §1
In the case of B1, the yeast fitness gain was inactive: -0.0253.

With B2, the yeast fitness gain is inactive: -0.172.

Turning to B4, the yeast fitness gain is inactive: 0.0431.

For a further assay, the target named is SARS-CoV-2 S. The assay is described as above. How it is done:
as §1
Turning to B1, the yeast fitness gain was inactive: 0.0237.

For the molecule B2, the yeast fitness gain was inactive: -0.101.

Consider B3, for which the yeast fitness gain was inactive: -0.0571.

Regarding B4, the yeast fitness gain is inactive: 0.0657.

The target in another assay is SARS-CoV-2 NSP1. Described as above. How it is done:
as §1
Turning to B2, the yeast fitness gain is inactive: -0.0672.

As to B3, the yeast fitness gain is inactive: 0.0869.

Regarding B4, the yeast fitness gain is inactive: 0.0774.

A further assay concerns the target SARS-CoV-2 NSP10. The description is as above. As to the method: as §1
Regarding B2, the yeast fitness gain is inactive: 0.0559.

B3: the yeast fitness gain is inactive: -0.0422.

In the case of B4, the yeast fitness gain is inactive: 0.0181.

The target of another assay is SARS-CoV-2 NSP12. Described as above. As to the method:
as §1
As for B2, the yeast fitness gain is inactive: -0.0544.

On to B3, for which the yeast fitness gain was inactive: -0.00648.

For B4, the yeast fitness gain was inactive: 0.0914.

A further assay addresses SARS-CoV-2 NSP6. The assay is described as above. How it is done:
as §1
As to B2, the yeast fitness gain is inactive: 0.0451.

On to B3, for which the yeast fitness gain was inactive: -0.151.

Consider B4, for which the yeast fitness gain was inactive: -0.0186.

The target of another assay is SARS-CoV-2 NSP7. Described as above. As to the method:
as §1
On to B2, for which the yeast fitness gain was inactive: -0.0223.

Take B4: the yeast fitness gain is inactive: 0.00273.

Another assay addresses SARS-CoV-2 NSP8. The description is as above. As to the method: as §1
As for B2, the yeast fitness gain was inactive: 0.068.

For B4, the yeast fitness gain is inactive: -0.106.

The next assay has as its target SARS-CoV-2 ORF6. The description is as above. As to the method:
as §1
As for B2, the yeast fitness gain is inactive: 0.00569.

For B3, the yeast fitness gain was inactive: -0.0356.

As for B4, the yeast fitness gain is inactive: 0.0159.

A further assay has as its target SARS-CoV-2 ORF7B. Described as above. As to the method:
as §1
As for B2, the yeast fitness gain was inactive: 0.0226.

On to B3, for which the yeast fitness gain is inactive: -0.071.

For the molecule B4, the yeast fitness gain is inactive: 0.0612.

The next assay deals with SARS-CoV-2 ORF8. The assay is described as above. As to the method: as §1
As to B2, the yeast fitness gain is inactive: 0.105.

Turning to B3, the yeast fitness gain was inactive: 0.013.

On to B4, for which the yeast fitness gain is inactive: 0.0441.

Another assay deals with SARS-CoV-2 ORF9B. Described as above. As to the method:
as §1
For B2, the yeast fitness gain is inactive: -0.028.

Regarding B3, the yeast fitness gain was inactive: -0.027.

For B4, the yeast fitness gain is inactive: -0.0269.

For another assay, the target named is SARS-CoV-2 ORF9Bwu (the 73-codon ORF). The description is as above. As to the method:
as §1
For the molecule B2, the yeast fitness gain was inactive: 0.0197.

As to B4, the yeast fitness gain is inactive: -0.0495.

The target of the next assay is SARS-CoV-2 ORF3A. The description is as above. As to the method:
as §1
B3: the yeast fitness gain was inactive: -0.0608.

With B4, the yeast fitness gain is inactive: -0.0226.

In another assay the target is SARS-CoV-2 NSP14. The assay is described as above. How it is done:
as §1
On to B4, for which the yeast fitness gain was inactive: 0.155.

The target of a further assay is SARS-CoV-2 NSP4. The assay is described as above. How it is done: as §1
As for B4, the yeast fitness gain is inactive: 0.0321.

The target of another assay is SARS-CoV-2 NSP9. The description is as above. How it is done:
as §1
Turning to B4, the yeast fitness gain was inactive: 0.0541.
